In test [1] the target is T1, MIP-P3-His (disulfide trap single-chain trimer of PRAME antigen peptide … and HLA-A24, His tag) (human).
T1 construct: Single polypeptide; His tag added at the C-terminus; also called dtSCT; MIP-P3-His fusion protein
Briefly: SPR, Biacore T200, as in Section 2.3; MIP-P3-His as analyte.

Test [2] concerns the target T2, HLA-A24/PRAME complex: PRAME301-309 (…) presented by HLA-A24 on cells (human; human (homo sapiens)).
T2 construct: whole, on cells
Briefly: flow cytometry on peptide-pulsed HT-29 cells, anti-human IgG-FITC. Background: A flow cytometer gives signals particle by particle.

Test [3] concerns the target T1, MIP-P3-His (disulfide trap single-chain …). Briefly: SPR, Biacore T200; antibody captured by anti-human IgG(Fc), MIP-P3-His as analyte, 1:1 model.

The results in this text go back to patent publication EP4803546A1 (Beijing Wisdomab Biotechnology Co., Ltd, dated 2026).

B1: N83G3-Fc recombinant protein (anti-HLA-A24/PRAME antibody N83G3) (Fc fusion)
chain: QVQLVESGGGLVQAGGSLRLSCAASGASLDIYVMGWYRQATGKERDLVAVITGSGNTNYADSVKGRFTISRDDAKNTLYLQMSSLKPEDTAVYYCAGGRPSRYYRDSGTWADFWGQGTQVTVSSAS[human IgG1 Fc with changes not given here]
notes: Llama VHH fused to the Fc of human IgG1; In SPR it was captured by an anti-human IgG(Fc) antibody; in flow cytometry it was detected with anti-human IgG-FITC; also called TCRm antibody N83G3; anti-HLA-A24/PRAME monoclonal antibody N83G3
Consider B1, for which, in test [1], the Kd turned out to be 0.0509 nM, the off-rate constant (koff) stood at 4.67e-05 s⁻¹ and the kon amounted to 918000 M⁻¹ s⁻¹. For the same molecule, the binding result in test [2] is given as “binds”. In test [3], this molecule came in with a Kd of 0.0579 nM, a koff of 4.03e-05 s⁻¹ and a kon of 696000 M⁻¹ s⁻¹.

In general, Kd refers to the equilibrium constant for the complex coming apart. The low end stands for a tighter complex, the high end for a looser complex. For orientation: koff means the rate constant with which the complex falls apart. Usually kon stands for the rate constant with which the complex forms.
